# According to the antibiotic and cytotoxicity screens of Wong et al. (2023):
# The list shows a part of the results.
# Tested on: HepG2
# Test: cytotoxicity call (relative viability < 0.9)
# Settings: 10 µM
row,SMILES,cytotoxicity call
1,COc1ccc(S(=O)(=O)N(C)C[C@@H]2Oc3ncc(-c4ccncc4)cc3C(=O)N([C@@H](C)CO)C[C@H]2C)cc1,inactive
2,C[C@@H]1CN([C@H](C)CO)S(=O)(=O)c2ccc(C#Cc3ccc(F)cc3)cc2O[C@H]1CN(C)S(=O)(=O)c1ccc(F)cc1,inactive
3,CO[C@H](CN(C)S(=O)(=O)c1ccc(C)cc1)[C@H](C)CN([C@@H](C)CO)S(=O)(=O)c1cccc(Cl)c1,inactive
4,C[C@@H]1CCCCO[C@H](CN(C)C(=O)NC2CCCCC2)[C@H](C)CN([C@H](C)CO)C(=O)c2cc(NC(=O)Nc3cccc4ccccc34)ccc2O1,inactive
5,C[C@H](CO)N1C[C@H](C)[C@H](CN(C)C(=O)Nc2ccc(C(F)(F)F)cc2)Oc2ccc(NC(=O)Nc3ccc(F)cc3)cc2C1=O,inactive
6,C[C@@H]1CN([C@@H](C)CO)C(=O)c2ccccc2-c2ccccc2CO[C@@H]1CN(C)C(=O)Nc1cccc(C(F)(F)F)c1,inactive
7,COc1ccc(-c2cnc3c(c2)C(=O)N([C@H](C)CO)C[C@H](C)[C@H](CN(C)S(=O)(=O)c2cccc(OC)c2)O3)cc1,inactive
8,CN(C)CC(=O)N[C@H]1CC[C@H](CCNC(=O)C2CCC2)O[C@H]1CO,inactive
9,C[C@H](CO)N1C[C@H](C)[C@H](CN(C)S(=O)(=O)c2ccc(F)cc2)Oc2ccc(NC(=O)c3ccncc3)cc2CC1=O,inactive
10,O=C(C[C@H]1C[C@H]2c3cc(NC(=O)NC4CCCC4)ccc3O[C@H]2[C@H](CO)O1)NCCN1CCCCC1,inactive
11,N[C@H](Cc1cnc[nH]1)C(=O)O,inactive
